These results are taken from the supplement of paper PMC3334620.

In all, about 33,000 sequences were measured (“E-score (-0.5 to 0.5)”: median about -0.053, highest 2% from about 0.37 on). The list shows a part of the results.

The target of this assay is Hap1 (UniProt P0CE41). In words: PBM E-score (8-mer binding enrichment) (E-score (-0.5 to 0.5)); higher = stronger / more preferred TF binding; most listed sequences are background and not binding sites. Particulars: protein concentration: 200 nM; construct: GST-DNA-binding domain. The essentials: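 Using PURExpress in vitro transcription/translation, GST-tagged yeast transcription factors were made in full-length or DNA-binding-domain form. These were applied at about 100-200 nM to double-stranded universal all-10-mer Agilent arrays, and bound protein was detected with fluorescent anti-GST. Scans were normalised with masliner before the Universal PBM Analysis Suite assigned E-scores to ungapped eight-base words pooled with their reverse complements.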
Sequence of UniProt P0CE41 (P0CE41 whole entry, the tested form may be a part): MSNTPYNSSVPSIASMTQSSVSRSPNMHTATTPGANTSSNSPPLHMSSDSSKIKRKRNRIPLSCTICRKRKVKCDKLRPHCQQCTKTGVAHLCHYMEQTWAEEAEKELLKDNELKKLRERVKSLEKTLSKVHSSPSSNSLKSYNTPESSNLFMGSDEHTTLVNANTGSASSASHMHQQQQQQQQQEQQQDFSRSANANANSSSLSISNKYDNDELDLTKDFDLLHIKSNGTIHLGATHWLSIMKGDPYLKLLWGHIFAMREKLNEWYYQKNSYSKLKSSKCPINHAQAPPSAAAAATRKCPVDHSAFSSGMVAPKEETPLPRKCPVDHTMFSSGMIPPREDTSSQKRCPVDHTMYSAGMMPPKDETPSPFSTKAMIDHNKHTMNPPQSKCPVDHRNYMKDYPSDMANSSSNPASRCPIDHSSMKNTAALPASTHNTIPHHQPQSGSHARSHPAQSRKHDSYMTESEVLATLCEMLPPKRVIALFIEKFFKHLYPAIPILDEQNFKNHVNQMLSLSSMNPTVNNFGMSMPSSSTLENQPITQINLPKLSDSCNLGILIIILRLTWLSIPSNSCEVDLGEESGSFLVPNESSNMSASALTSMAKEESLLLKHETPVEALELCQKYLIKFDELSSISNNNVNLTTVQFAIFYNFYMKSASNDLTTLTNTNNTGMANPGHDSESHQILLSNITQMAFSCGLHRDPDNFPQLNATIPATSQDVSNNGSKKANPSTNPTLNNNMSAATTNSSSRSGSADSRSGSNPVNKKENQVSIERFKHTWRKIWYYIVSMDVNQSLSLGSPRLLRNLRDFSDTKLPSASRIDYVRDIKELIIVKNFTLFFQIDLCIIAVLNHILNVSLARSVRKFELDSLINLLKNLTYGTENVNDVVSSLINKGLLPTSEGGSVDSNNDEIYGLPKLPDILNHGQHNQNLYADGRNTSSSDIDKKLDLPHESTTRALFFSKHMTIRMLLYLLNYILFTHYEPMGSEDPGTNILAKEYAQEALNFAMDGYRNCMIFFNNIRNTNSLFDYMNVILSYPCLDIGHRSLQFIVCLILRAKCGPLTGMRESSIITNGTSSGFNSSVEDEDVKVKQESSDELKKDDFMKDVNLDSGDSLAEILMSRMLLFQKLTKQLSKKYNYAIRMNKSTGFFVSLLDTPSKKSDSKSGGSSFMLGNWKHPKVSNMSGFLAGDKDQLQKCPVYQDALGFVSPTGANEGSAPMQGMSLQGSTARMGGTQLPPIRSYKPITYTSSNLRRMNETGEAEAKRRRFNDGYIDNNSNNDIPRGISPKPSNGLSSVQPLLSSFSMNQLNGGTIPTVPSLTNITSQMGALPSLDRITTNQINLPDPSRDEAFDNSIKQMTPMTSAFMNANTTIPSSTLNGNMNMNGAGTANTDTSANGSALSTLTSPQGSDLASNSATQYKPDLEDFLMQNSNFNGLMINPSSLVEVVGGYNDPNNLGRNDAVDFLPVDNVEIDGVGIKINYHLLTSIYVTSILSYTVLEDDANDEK
With AACTAGAG, the “PBM E-score” value is -0.292. ACTAGAGG: the “PBM E-score” value was -0.1. The same measure for GGGAGCGA: -0.125. The result for GATCTAAA reads 0.0348; that for ATCACTCA, -0.111. The same measure for CCGAGTGA: 0.261; for GATACTCA: 0.143; for GACTCGCC: 0.0129. Consider ACAACACG, for which the “PBM E-score” value stood at 0.0134. The result for TTAGGCAA reads -0.167. The result for CCATACGG reads 0.186; that for AATTACAA, -0.269; that for AGATTTAT, 0.192.

As for AACATAAA, the “PBM E-score” value was -0.115. The same measure for GGGGACGA: -0.0152; for AAACTTCT: 0.146. With GGCAAGCC, the “PBM E-score” value was -0.0221. The result for AAGGACAA reads -0.0277; that for AATTTGTG, 0.0108; that for CCGGCTAA, 0.331.

As for CTGGGACA, the “PBM E-score” value is -0.243. On to AACGCACT, for which the “PBM E-score” value is -0.0698. The same measure for TAGCGCAA: -0.0472. The same measure for GCGTATTA: 0.031. The result for GTAGCGCA reads 0.0264; that for AGTACGCC, 0.0273.

For ACGGTCTC, the “PBM E-score” value is 0.141.

Take ATTAGTCG: the “PBM E-score” value was 0.0282.

As for CACATCAG, the “PBM E-score” value was -0.0587.

For GGGTAGTA, the “PBM E-score” value worked out at 0.0782. The result for CGGCTTAG reads 0.229; that for ACTCCCTA, -0.252.

As to CCTAACAC, the “PBM E-score” value came out at 0.139. Consider AGCGCCGC, for which the “PBM E-score” value worked out at 0.177.

With AATGCCGA, the “PBM E-score” value is 0.405. The same measure for CACCCGAA: 0.267. The result for GTCGTCGA reads -0.121; that for GGCGAAAA, 0.145; that for AGCAGAGA, -0.248. The result for ACGAAATG reads -0.0873. GCATTTAA: the “PBM E-score” value was determined as 0.223.

Turning to CCATCGCG, the “PBM E-score” value was 0.224. Take GAAGTCCA: the “PBM E-score” value is -0.0583. The same measure for AGAAGGCA: -0.201; for CCGAGCAC: 0.287. The result for GCCCAGGA reads 0.0232; that for GCGGCAGC, -0.115; that for TAACTATA, -0.14. The same measure for GACTAGCA: -0.0979.

For AATCGAAT, the “PBM E-score” value was -0.035. ACGCTGTA: the “PBM E-score” value was -0.134. As to CTTTAGAA, the “PBM E-score” value amounted to 0.0707.

Consider ACGTAGGA, for which the “PBM E-score” value was -0.134. The same measure for CTGCCGCA: -0.137; for CTATAATC: -0.101. The same measure for CACCACAC: -0.0184. The result for CGTGACAG reads -0.0536; that for ATCCGACA, 0.305; that for AGCGCGGG, 0.0832.

CCGAAGCA: the “PBM E-score” value worked out at 0.21. Regarding CAACATTG, the “PBM E-score” value turned out to be 0.0423.

Regarding CATGTAGA, the “PBM E-score” value was -0.188. As to GCTGGATA, the “PBM E-score” value is -0.098. Take ATCTGCAC: the “PBM E-score” value was -0.0358. The result for AGACGATG reads -0.0493; that for GACTTTCC, 0.165; that for GATGCCAC, -0.127. The result for AGTTTCGC reads -0.0105. The same measure for ACCTTAAC: 0.0996; for GGTGTATA: -0.0843. AACCGTCC: the “PBM E-score” value was found to be 0.13. Regarding ACCAGCCC, the “PBM E-score” value is 0.14. With ATTAAGAG, the “PBM E-score” value is -0.0483.

As to GACTTACA, the “PBM E-score” value was -0.23. The same measure for CACTAGTA: -0.164; for GATGCCTA: -0.185; for GCGGTGCC: 0.0757. The same measure for ACCAGGCC: -0.0592; for TAAATCGA: -0.0466; for GAGGAAAC: 0.0978. The same measure for CAGTGGGG: -0.227; for CCCGCTAA: 0.326; for AACAGATA: -0.0562.

ACCTATAA: the “PBM E-score” value was -0.0286. With CTGCTGTC, the “PBM E-score” value was -0.0121. The same measure for ATCGAGTC: -0.156; for GCGTCCTA: -0.173. The result for CCCGGCCG reads 0.405; that for CATACATC, -0.157. The result for GGGTACCC reads 0.0266; that for CAAAGCCA, -0.17; that for AATACTGG, -0.0493. As to CCCAGCAC, the “PBM E-score” value was -0.0339. The result for GATTGCGA reads 0.166.
